Measurements reported in the supplement of paper PMC3334620.
Over roughly 33,000 sequences, “E-score (-0.5 to 0.5)” has its median near -0.016; the highest 2% begin near 0.32. The list shows a part of the results.

Molecular target: T1, Stp1 (UniProt B3LFK1)
T1 sequence: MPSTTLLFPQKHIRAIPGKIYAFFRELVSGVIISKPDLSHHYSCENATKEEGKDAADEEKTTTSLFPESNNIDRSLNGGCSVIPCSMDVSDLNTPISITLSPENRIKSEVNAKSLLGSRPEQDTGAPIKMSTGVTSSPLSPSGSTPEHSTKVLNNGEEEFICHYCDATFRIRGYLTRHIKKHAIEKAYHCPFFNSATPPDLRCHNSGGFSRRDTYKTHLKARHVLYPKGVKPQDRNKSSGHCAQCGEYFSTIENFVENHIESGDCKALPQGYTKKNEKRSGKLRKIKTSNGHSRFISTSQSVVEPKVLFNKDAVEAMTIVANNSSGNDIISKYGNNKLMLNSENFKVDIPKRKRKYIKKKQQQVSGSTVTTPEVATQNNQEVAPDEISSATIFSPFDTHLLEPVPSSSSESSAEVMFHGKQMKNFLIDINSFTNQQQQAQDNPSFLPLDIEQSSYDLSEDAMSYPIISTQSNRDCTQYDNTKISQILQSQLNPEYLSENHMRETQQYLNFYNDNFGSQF
Assay: PBM E-score (8-mer binding enrichment) (E-score (-0.5 to 0.5)); higher = stronger / more preferred TF binding; most listed sequences are background and not binding sites
Conditions: protein concentration: 200 nM; construct: GST-full length
Method in brief: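 Yeast transcription factors carrying a GST tag, as full-length proteins or DNA-binding domains, were produced by PURExpress in vitro transcription/translation. About 100-200 nM protein was applied to universal all-10-mer Agilent arrays, double-stranded by primer extension on fresh or once-stripped slides. Bound protein was detected with fluorescent anti-GST, and scans were normalised with masliner. The Universal PBM Analysis Suite gave each ungapped eight-base word, pooled with its reverse complement, an E-score, a modified Wilcoxon-Mann-Whitney statistic.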

Sequence	PBM E-score
ACTTCACC	0.174
CCCTGAGC	-0.0609
GGGCGTAA	-0.0217
CCTCTAAG	-0.178
CTGGCCTC	-0.197
GAGCCCAC	-0.264
CCTGAACA	-0.103
ACGGTGGA	-0.202
AGTGAAAT	0.108
CCTAAGTC	-0.287
ACTCGACT	-0.136
GACTTCTA	-0.11
AGGCAGAC	-0.147
AGGCATGC	0.144
CCCATGTA	-0.0406
CGCGAGAC	-0.0726
AAGGAAGA	-0.149
ACCTGCTG	-0.0848
AAACCCGA	0.104
GGTTGAAA	0.0306
AAGTGTAC	-0.111
CGCAAACC	0.0345
GTGATTGA	0.144
AGGAGTTC	-0.206
AACTTCAG	-0.15

Sequence	PBM E-score
CCATATTA	0.14
TAGTGTAA	0.166
ATCAAGTG	-0.0832
TATGCCCA	-0.122
AAATGCAC	0.0093
TCCATGGA	0.173
GAGATAGA	-0.0115
GGCCTCTA	-0.133
CCTACCTC	-0.304
CGGGCAAG	0.052
CTACTGAA	0.167
TACTTCAA	0.0503
GTCGGGAA	-0.0823
CCCCCGTA	-0.238
CCAAATTC	0.011
AGGGGACA	-0.145
ATTGTAGG	0.196
CCCTGGAG	-0.332
CTATATTA	0.177
CCCATAGC	-0.263
ATGACCCA	-0.144
CGTTCATC	0.0052
AAGAAGTG	-0.0361
ATTACAGA	0.0669
ATACGTAC	0.197

Sequence	PBM E-score
GGTGGCAA	-0.136
AGAGTTGG	-0.146
CGATAAGA	0.0597
CAACGTAA	0.0354
ATAATTGC	0.113
CGTCTGAG	0.0535
CAAGGTAC	-0.0837
CATGTCTC	-0.169
TCGTACCA	0.0286
ACTGCGCT	-0.19
ACGGATTA	0.159
AATGTGAA	0.125
CTAAACCA	-0.138
ATATCATC	0.115
AACCTCAC	-0.205
CCACCACG	-0.0478
GCCAAGCC	-0.127
CCAGTCTC	-0.199
GCCGCGCC	0.46
GCTACCAA	-0.117
AGATAGTG	0.0428
ACTGGAGG	0.0177
AGGCTTCA	-0.0829
ATGTTCCA	-0.0898
CCTAGAAG	-0.0172

Sequence	PBM E-score
CTGAATTC	-0.0371
ACTCTGGA	0.0868
ATAGGGAC	-0.211
TAGGCCTA	-0.236
GCCTCGAA	0.136
GCGTTGCA	0.19
AAAGCCTG	-0.0846
GATCAACC	-0.208
ACACAGTG	-0.0507
TAAGAACA	0.297
GTTCTTTA	-0.0057
GATACGCA	0.057
GAGCAGGA	-0.121
GGGGCACA	0.0124
GGCAAGAA	0.22
ATTCATGC	-0.0305
GTTCGCTA	0.146
AGCAACGA	0.0731
ACCCTGAA	-0.0806
TCTAATAA	0.183
ACGTATGC	0.00677
AGCCACCA	-0.131
ATATATAG	0.318
AAGGGTGG	-0.288
ATTGAGGA	-0.0544

Sequence	PBM E-score
CCAGGGGA	-0.182
CTTACCGA	0.0792
AAGCATGA	-0.0275
TCGCGACA	-0.0531
AGAATTTA	0.0596
TCGTTTAA	0.0364
AATGATGA	-0.12
CTGGGATA	-0.0426
TCGCTCAA	-0.0935
TCGCAAAA	0.138
GGCGATAC	0.179
GCAACACC	0.12
CGATGGTA	-0.0571
CAAAGGAC	-0.198
ATTTTTAA	0.222
ACGCGCCA	0.0175
AGTCAAGC	-0.4
AGCTACGG	0.0711
TCGCGAGA	0.0306
AATAACGG	0.265
GACGATGC	0.0605
CCACCCAA	-0.136
CTCCATCA	-0.0704
GGTGGCAC	0.147
ATAAGGAG	-0.147

Sequence	PBM E-score
CTCCTGTC	-0.0571
GCCGTTAC	0.268
AAAAATGA	0.0138
CAACAAGG	0.178
CTGTGCAC	-0.0277
CGAAACCG	0.161
CAACTATC	-0.0556
GCCACAGA	0.057
AATGGGCA	0.0749
AGATCGGG	-0.328
GCGTCGGA	0.106
CCTATTCC	0.0452
ATAAAAGA	0.0121
GCTCTAAA	0.0828
GTGGCGCA	0.3
CTACGATA	0.0401
AGGTTATC	-0.12
CCGTCCAC	0.22
TCCTGAAA	0.0222
AATGAAAA	0.191
AATGGTGG	-0.267
ACTGTCGG	-0.0575
AGACTGTA	-0.0982
ATCACGTC	-0.00103
AGCAGAAT	0.0608

Sequence	PBM E-score
CGGTTTAG	-0.194
GGGTGACA	-0.224
AGTCGGAA	0.109
TCCAGCAA	-0.116
TAAACACA	0.059
AGGATCCG	-0.223
ATGTCAAC	-0.0864
ACAAAGCC	0.208
AGGTTCGA	-0.069
AATGATTG	0.0683
ATCTGGGA	-0.14
CAAGGGCG	0.0905
CTCCTTCC	-0.223
ACGCAGAT	-0.0383
CGCGCATC	0.0783
ATGAATAA	-0.00029
AGGGAACT	-0.197
GCTATGGA	-0.225
GACGGACC	0.0496
ACAGTATC	0.197
AGCTAACT	0.0936
ATATATGC	0.0932
GAATCAGA	0.101
AGATAGAC	-0.046
CTGCTTGA	-0.179

Sequence	PBM E-score
ACGCTTGG	-0.23
CAAGATTC	0.0354
ACCAGTCC	-0.289
ACTTTTTG	0.00254
GTACTACA	0.16
TAGAATGA	0.0457
GCCGCGAC	0.282
AATCATCG	-0.0964
GGGCGACA	0.0209
GAGGAATA	0.0135
ATCCCGAG	0.00351
ATTAGGCC	-0.0584
CATGTTAA	0.181
GCCCCGGC	-0.156
AAGAGCCG	0.336
GGGCACGA	0.133
CGGTCCAC	-0.119
GACTTATC	-0.216
CACTTGAC	-0.0949
AGCTACTA	-0.0111
CGGTTGAA	0.106
AGAGACGC	-0.034
CTAGAGCA	-0.148
ATCTACTC	0.0719
ACGCCGTG	0.485

Sequence	PBM E-score
ACTGTAAT	0.0123
GTACAGGA	-0.0206
ATTCTCAC	0.0144
ATCGGAGG	-0.198
ACATGCGG	0.311
AGTGGAGG	-0.205
GCTATGCA	-0.156
CGACGATC	-0.00079
CACAAGCC	0.0882
CCCATTTA	0.149
CGCGACAA	0.247
AGCCACAT	0.163
AACAGTGT	-0.102
CCACATAA	0.15
CGGCGCAA	0.422
CCTCTCGC	-0.228
ATCGCAAT	0.0775
TAATATTA	0.263
AGCATAGA	-0.00514
